Experimental data as given in paper PMC4336329 (PLoS ONE, 2015).
Among all 310,000 compounds or so, about 14,000 (4.5%) showed an effect of 50% or more. Effects have a minus sign here. This is one part of the list.

Molecular target: human ether-à-go-go-related gene (hERG) potassium channel (human, UniProt Q12809)
Experiment: primary screen, population patch clamp on CHO cells stably expressing hERG
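Note: peak tail current of the secondary pulse compared with the same well before compound.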

Sequence of human ether-à-go-go-related gene (hERG) potassium channel (Q12809 whole entry, looked up): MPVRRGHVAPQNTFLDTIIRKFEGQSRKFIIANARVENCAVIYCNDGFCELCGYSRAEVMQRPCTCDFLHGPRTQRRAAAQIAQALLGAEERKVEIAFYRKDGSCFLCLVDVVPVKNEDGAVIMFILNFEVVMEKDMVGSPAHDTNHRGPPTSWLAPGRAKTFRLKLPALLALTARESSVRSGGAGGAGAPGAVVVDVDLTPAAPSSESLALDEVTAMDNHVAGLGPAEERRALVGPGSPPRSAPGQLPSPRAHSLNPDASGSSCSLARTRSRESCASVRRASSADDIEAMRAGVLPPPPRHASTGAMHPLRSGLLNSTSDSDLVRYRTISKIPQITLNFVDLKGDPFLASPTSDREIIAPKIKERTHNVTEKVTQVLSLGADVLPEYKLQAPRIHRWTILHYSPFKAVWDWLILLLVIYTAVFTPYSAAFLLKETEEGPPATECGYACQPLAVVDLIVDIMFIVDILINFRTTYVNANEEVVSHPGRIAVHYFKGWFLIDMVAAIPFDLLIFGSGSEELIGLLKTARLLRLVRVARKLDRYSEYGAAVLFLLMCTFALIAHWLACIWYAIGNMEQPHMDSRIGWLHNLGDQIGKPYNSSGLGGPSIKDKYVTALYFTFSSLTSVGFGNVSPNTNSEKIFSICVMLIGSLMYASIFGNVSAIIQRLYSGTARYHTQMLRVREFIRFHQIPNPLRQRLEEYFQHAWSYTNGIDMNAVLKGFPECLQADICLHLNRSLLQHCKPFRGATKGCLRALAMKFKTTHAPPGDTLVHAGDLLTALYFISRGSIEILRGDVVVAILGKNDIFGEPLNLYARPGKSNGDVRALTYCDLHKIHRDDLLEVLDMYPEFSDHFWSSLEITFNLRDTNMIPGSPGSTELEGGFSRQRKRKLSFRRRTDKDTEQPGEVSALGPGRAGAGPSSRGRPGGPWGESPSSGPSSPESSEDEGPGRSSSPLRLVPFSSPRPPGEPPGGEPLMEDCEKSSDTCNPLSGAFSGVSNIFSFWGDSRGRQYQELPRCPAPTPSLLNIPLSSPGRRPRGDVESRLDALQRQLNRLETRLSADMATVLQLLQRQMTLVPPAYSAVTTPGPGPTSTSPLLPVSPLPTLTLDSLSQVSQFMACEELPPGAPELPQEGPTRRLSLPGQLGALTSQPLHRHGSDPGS

Structure (SMILES) | hERG current change (%, negative = inhibition) at 10uM [%]
Cc1cc(OC(C)C(=O)NCC(O)c2ccccc2)c2c(C)c(C)c(=O)oc2c1 (centres unmarked) | 7.2
CN1CCN(C(=O)c2cc3c(C(F)(F)F)nn(C)c3s2)CC1 | 6.05
CC(C)CNC(=O)Nc1ccccc1F | 21.3
COC(CN(C)C(=O)c1ccc2c(c1)NC(=O)c1ccccc1S2)OC | 4.3
CCC1CCc2c(sc(NC(=O)CSc3nc(-c4ccco4)cc(C(F)(F)F)n3)c2C#N)C1 (centres unmarked) | 18.4
FC(F)(F)c1cnc(COc2cc(Cl)cc(Cl)c2)c(Cl)c1 | 22.7
Cc1ccc(NC(C)C(=O)N/N=C/c2ccc([N+](=O)[O-])s2)cc1 (centres unmarked) | 8.3
Cn1c(=O)c2c(ncn2CC(=O)N2CCOCC2)n(C)c1=O | -8.32
COc1c(C)cc(C(=O)C2CCCN(C(=O)c3csc(C)n3)C2)cc1C (centres unmarked) | -1.93
C=CCn1c(SCC(=O)Nc2ccc3c(c2)OCO3)nnc1-c1cc(Br)ccc1O | -22.3
CCCCCC(=O)Nc1cccc(C2=NOC3(C2)C[C@@H](C(N)=O)N(C(=O)c2ccc(OC)cc2)C3)c1 (some centres unmarked) | -6.6
CCc1ccc(NC(=O)Cn2nnc(C(=O)NCc3ccc(OC)cc3)c2N)cc1 | 8.05
Cc1cc2c(NC(=O)Nc3ccc(C(C)(C)C)cc3)cccc2nn1 | 24.8
CN(CC(=O)Nc1c(Cl)cccc1Cl)C(=O)CCc1nc2sc3c(c2c(=O)[nH]1)CCCC3 | 13.2
CC(C)OC(=O)CSc1nnc(-c2ccc([N+](=O)[O-])cc2)o1 | 4.46
CCOc1ccc(N(C)S(=O)(=O)c2c[nH]c(C(=O)OC)c2)cc1 | -5.78
CC(C)CCCNc1nc(N2CCOCC2)nc(N2CCOCC2)n1 | -14
Cc1ccc(CNC(=O)CSc2nc3ccsc3c(=O)n2Cc2ccccn2)cc1 | -22.5
CCOC(=O)c1cc(C)nc(N2CCCCC2)c1C#N | -3.13

Structure (SMILES) | hERG current change (%, negative = inhibition) at 10uM [%]
Cc1ccc(C(=O)COC(=O)CNS(=O)(=O)c2ccccc2)cc1[N+](=O)[O-] | -3.62
COc1ccc([C@H]2[C@@H](C#N)[C@H](C#N)N3CCCN23)cc1 | 14.2
COc1cc(NS(=O)(=O)c2ccc(-c3ccc(=O)[nH]n3)o2)cc(OC)c1OC | -5.99
Cc1ccc(NC(=O)C2CCCN(c3ncccn3)C2)cc1F (centres unmarked) | -0.00042
O=S(=O)(c1cccs1)N1CCN(S(=O)(=O)c2cccs2)CC1 | 20.8
CC(C)c1nnc(NC(=O)CCC(=O)NCCc2ccccc2)s1 | 7.63
CCCN(CC(=O)Nc1ccccc1C)C(=O)CCl | -0.969
CCOc1ccccc1OCCCC(=O)NCCc1ccc(S(N)(=O)=O)cc1 | 5.08
Cc1cccc(NC(=O)c2ccccc2OCC(=O)N2CCCC2)c1C | -2.46
CCCOC(=O)c1ccc(NC(=O)C(CC)CC)cc1 | -4.06
O=C(Nc1ccccc1C(F)(F)F)C1CC(=O)N(c2ccccc2F)C1 (centres unmarked) | -16.3
COCCn1c(SCC(=O)N(C)c2c(N)n(Cc3ccccc3)c(=O)[nH]c2=O)nnc1-c1cccc(C)c1 | 24.7
C[C@H](NC(=O)c1ccccc1Cl)C(=O)Nc1ccccc1F | -6.39
CCCCSCCCNC(=O)c1ccc(CS(=O)(=O)c2ccc(OC)cc2)o1 | -59.6
CC1(C)Cc2c(cnn2-c2cccc(F)c2)C(NC(=O)CCc2cnccn2)C1 (centres unmarked) | -28.4
CCOc1ccc(/C=N/NC(=O)c2cc(-c3ccco3)nc3ccccc23)cc1 | 3.56
CN1CCSc2ccc(C(=O)NCc3cccc(Br)c3)cc21 | 0.343
CC(C)c1ccccc1 | 15.3
COc1ccc(OC)c(-c2csc(NC(=O)c3ccc(F)cc3)n2)c1 | -46.8

Structure (SMILES) | hERG current change (%, negative = inhibition) at 10uM [%]
CCOC(=O)N1CCC(N2CCCC(C(=O)c3ccccc3OC)C2)CC1 (centres unmarked) | -67.7
c1ccc2sc(NC3=NCCN3)nc2c1 | -26.2
CCCCCn1c(SCC#N)nc2cc(C(=O)NCC3CCCO3)ccc2c1=O (centres unmarked) | -52.7
CCCn1nc(C(=O)OCC(=O)c2ccc3c(c2)NC(=O)CO3)c2ccccc2c1=O | -23
Cn1nnnc1SCC1=C(C(=O)O)N2C(=O)C(NC(=O)C3CC3c3ccccc3)C2SC1 (centres unmarked) | 41
O=S(=O)(N/N=C\c1ccc(-c2ccccc2Cl)o1)c1ccccc1 | 10.4
O=S1(=O)CCN(C(CO)c2ccccc2)CC1 (centres unmarked) | 18.2
CCOC(=O)C1=C(c2ccccc2)OC(N)=C(C#N)C1c1ccc(Br)s1 (centres unmarked) | 14.1
CCOC(=O)c1ccc(-n2nc(C)cc2C)cc1 | 5.63
O=C(O)Cc1c[nH]c2ccc(O)cc12 | 15.8
COCCCNC(=O)CCn1c(=O)c2ccccc2n(CC(=O)Nc2c(C)cccc2C)c1=O | 16.9
COc1ccc(OCCC(=O)OCC(=O)NCc2ccc(F)cc2)cc1 | 3.53
COc1ccc(N2CCN(Cc3cc(=O)c(OCC(=O)NC4CCCC4)co3)CC2)cc1 | -23.1
CCN(CC)c1ccc(/C=N/NC(=O)c2c(Cl)cnn2C)c(O)c1 | 3.26
O=C(CC1NCCc2ccccc21)Nc1ccccc1Cl (centres unmarked) | 16.6
Cc1ccc(-c2nnc(-c3ccc(NC(=O)c4ccco4)cc3)o2)cc1 | 10.5
CC1CCN(S(=O)(=O)c2ccc(NC(=O)N3c4ccccc4Sc4ccccc43)cc2)CC1 | 14.6
CCOc1cc(/C=N/Nc2nc(-c3cccc(S(=O)(=O)N4CCCC4)c3)cs2)ccc1O | 3.28
